In all, about 48,000 compounds went through this assay and about 1,200 (2.5%) were called active. About 2% were inconclusive and are not listed.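 How the source made its calls: active means activation of at least 60% and not above a set upper limit (about 1 call in 100 departs from these limits); inconclusive means activation of 40% to 60%, or above that upper limit; inactive means activation under 40%.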 The list shows a part of the results.
target: Probable G-protein coupled receptor 32 (Homo sapiens) (UniProt O75388); assay: qHTS for Agonists of Human Resolvin D1 Receptor DRV1; conditions: CHO-K1 GPR32 beta-arrestin PathHunter luminescence, 90 min; at 76.9 µM; hits give high values; zero percent set by DMSO-only wells; further: 0% is about no effect
Procedure, shortened: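 Beta-arrestin recruitment read-out: luminescence from complemented beta-Gal in CHO-K1 GPR32 PathHunter cells, measured 1 h after detection reagent at ambient temperature following 90 min compound exposure at 37 °C; DMSO served as basal (EC0) control.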

Sequence of UniProt O75388 (O75388 whole entry, looked up): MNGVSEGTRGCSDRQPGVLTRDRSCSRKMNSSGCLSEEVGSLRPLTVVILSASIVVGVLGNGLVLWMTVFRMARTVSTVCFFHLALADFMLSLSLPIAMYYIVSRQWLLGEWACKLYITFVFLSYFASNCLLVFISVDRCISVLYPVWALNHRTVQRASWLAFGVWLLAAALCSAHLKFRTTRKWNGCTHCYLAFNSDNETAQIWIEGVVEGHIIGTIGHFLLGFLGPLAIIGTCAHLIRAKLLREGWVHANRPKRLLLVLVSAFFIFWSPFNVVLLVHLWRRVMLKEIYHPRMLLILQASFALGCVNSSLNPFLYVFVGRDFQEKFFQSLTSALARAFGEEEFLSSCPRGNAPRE

activation, inactive:
Cc1cc(C)c(NC(=O)c2cc(S(=O)(=O)NCCC3=CCCCC3)ccc2F)c(C)c1 7.01%, CCn1ccc2cc(S(=O)(=O)N3CCC(C(=O)NCc4cccc(Cl)c4)CC3)ccc21 2.56%, Cc1cccc(-n2ncc(C(=O)N3CCN(Cc4ccccc4)CC3)c2C2CCN(C(=O)OC(C)(C)C)CC2)c1 -13.2%, CCOc1ccc(N(C)S(=O)(=O)c2c(C(=O)N3CCC(C)CC3)c(C)n(C)c2C)cc1 -21.5%, CCOc1ccccc1NC(=O)N1c2ccccc2Sc2ccccc21 -17.4%, COc1ccc(Cn2c(CCC(=O)Nc3ccc(C)cc3)nc3cccnc32)cc1 -7.5%, Cc1ccc(NC(=O)Cn2nnc3sc4c(c3c2=O)CCC(C)C4)cc1 (configuration not stated) -6.06%, Cc1ccc(C2CCN(C(=O)Nc3ccc(Cl)cc3)C2)cc1 (configuration not stated) 5.88%, Cc1c(Cl)cccc1NC(=O)CNS(=O)(=O)c1cccs1 -4.64%, Cc1nc2sccn2c(=O)c1S(=O)(=O)Nc1ccc(N2CCOCC2)cc1 -16%, Cc1cc(=O)[nH]c2nnc(SCc3c(F)cccc3Cl)n12 2.39%, CCOC(=O)CCn1cnc2onc(-c3cc(OC)ccc3Cl)c2c1=O -0.14%, Cc1ccc(OCc2nc(-c3ccc(C(=O)N4CCN(c5cccc(C(F)(F)F)c5)CC4)cc3)oc2C)cc1 -7.48%, CCOc1ccc2c(c1)sc1nc(=O)n(-c3ccc(Cl)c(Cl)c3)c(=O)n12 12.8%, CCCCCCCCCCCCCCC[C@H](O)[C@@H](N)CO -6.9%, CSc1cccc(NC(=O)C2CCN(S(=O)(=O)c3ccc4c(c3)CCCN4C(=O)C3CCC3)CC2)c1 -15.2%, COc1ccc(N(CC(C)C)S(=O)(=O)c2nnc(NC(=O)c3cccs3)s2)cc1 29%, O=C(Nc1ccc2nc(SCC(=O)N3CCc4ccccc43)sc2c1)c1cccc(F)c1 4.12%, COc1ccc(Cl)cc1NC(=O)CSc1nc2ccccc2c2nc(-c3ccccc3)nn12 -9.85%, Cc1cccc(NC(=O)c2ccc3c(O)c(S(=O)(=O)c4ccccc4)c(=O)[nH]c3c2)c1C -7.64%, Cc1ccc(C(=O)N2CCc3cc(CNC(=O)c4ccc(Br)cc4)ccc32)cc1 -35%, O=S(=O)(c1ccc(-c2cc(C(F)(F)F)on2)s1)N1CCN(c2ccccc2)CC1 -10.6%, CS(=O)(=O)NCC(c1ccco1)N1CCN(c2ccc(F)cc2)CC1 (configuration not stated) -16.8%, COCCNC(=O)CCn1c(=O)c2cc(OC)c(OC)cc2n(CC(=O)Nc2ccccc2C)c1=O -1.91%, Cc1cccc(C)c1NC(=O)C(=O)NCC(c1ccc2c(c1)OCO2)N1CCOCC1 (configuration not stated) -10.3%, CCOC(=O)c1cnc2c(Cl)cc(Cl)cc2c1Nc1cc(C(=O)O)ccc1C 12.5%, COc1ccc(S(=O)(=O)N2CCN(Cc3ccc4c(c3)OCO4)CC2)cc1C -20.3%, O=C(NCc1ccccc1Cl)c1cnc(N2CCOCC2)c2ccccc12 -14.9%, Cc1ccc(-c2cc(-c3coc4ccc(Cl)cc4c3=O)c3c(n2)-c2ccccc2OC3)cc1 0.649%, CCN(Cc1ccccc1)Cc1c(O)ccc2c(=O)c(-c3ccc(Cl)cc3)coc12 -20.8%, Cc1ccc(C)c(N2CCN(C(=O)CCNS(=O)(=O)c3ccc4c(c3)CCN4C(=O)C3CC3)CC2)c1 48.7%, O=C(C1CCC(Cn2c(=O)c3sccc3n(Cc3ccccc3)c2=O)CC1)N1CCCCC1 (configuration not stated) -10.8%, Cc1ccc2cccc(NC(=O)c3cccc4c(Cl)cccc34)c2n1 -9.81%, CCOc1ccc(NC(=O)CCc2nc3cccnc3n2-c2ccccc2)cc1 8.94%, COc1ccc(OC)c(NC(=O)CC2C(=O)NCCN2C(=O)C(F)(F)F)c1 (configuration not stated) -0.843%, Cc1ccc(NC(=O)c2oc3ccccc3c2NC(=O)c2ccc(F)c(F)c2)cc1 -2.02%, COc1ccc(S(=O)(=O)NCCS(=O)(=O)N2CCN(c3ccccc3)CC2)cc1OC -7%, COc1ccc2c(c1)c(CC(=O)Nc1ccc(C(C)=O)cc1)c(C)n2C(=O)c1ccc(Cl)cc1 -23.3%, COc1ccc(NC(=O)c2oc3ccccc3c2NC(=O)C23CC4CC(CC(C4)C2)C3)c(OC)c1 0.982%, O=C(Nc1nc2ccc(Cl)cc2s1)c1cc(=O)c2ccccc2o1 6.33%, CCc1cccc(CC)c1NC(=O)C(Cc1ccccc1)NS(=O)(=O)c1cccc2nsnc12 (configuration not stated) -32.8%, CCc1ccc(NC(=O)CSc2nc3c(oc4ccccc43)c(=O)n2-c2cccc(C)c2)cc1 -18.9%, CCc1cnc2c(c1SCc1ccccc1C)c(=O)n(C)c(=O)n2C -6.65%, CC(C)CN(CCCNC(=O)c1cc(=O)[nH]c2ccc(S(=O)(=O)N3CCCC3)cc12)CC(C)C -22.6%, Cc1ccc(CNC(=O)CCCCCn2c(=O)c3sccc3n(CC(=O)Nc3ccc(C)c(F)c3)c2=O)cc1 2.52%, CCN1C(C(=O)c2ccccc2)=C(OC(=O)COc2ccc(OC)cc2)c2ccccc2S1(=O)=O -71.3%, COc1cccc(C(=O)NC(=NCCc2c[nH]c3ccc(OC)cc23)Nc2nc(C)cc(C)n2)c1 -2.13%, CN1CCc2c(sc(NC(=O)CSc3ccc(F)cc3)c2-c2nc3ccccc3s2)C1 -22.7%, CC(C)CCNS(=O)(=O)c1ccc(N2CCCCS2(=O)=O)cc1 10.3%, CCOc1ccc(C(=O)c2cn(CC(=O)Nc3ccc4c(c3)OCCO4)c3ccc(F)cc3c2=O)cc1 38.2%, COc1ccc(NC(=O)Cn2c(=O)c3cc(Cl)ccc3n3nncc23)cc1 -19%, CC1(C)OC[C@@H]2O[C@@]3(C(=O)O)OC(C)(C)O[C@H]3[C@@H]2O1 26.1%

— PubChem BioAssay AID1346428 (National Center for Advancing Translational Sciences (NCATS), 2018)
